This note sets out measurements from paper PMC4336329 (PLoS ONE, 2015).

Among all 310,000 compounds or so, about 2,200 (0.71%) showed an effect of 50% or more. Effects have a minus sign here. Some of the results follow.

The target of the assay is human ether-à-go-go-related gene (hERG) potassium channel (human, UniProt Q12809). As to the kind of experiment: primary screen, population patch clamp on CHO cells stably expressing hERG.
Chain of human ether-à-go-go-related gene (hERG) potassium channel (Q12809 whole entry, looked up): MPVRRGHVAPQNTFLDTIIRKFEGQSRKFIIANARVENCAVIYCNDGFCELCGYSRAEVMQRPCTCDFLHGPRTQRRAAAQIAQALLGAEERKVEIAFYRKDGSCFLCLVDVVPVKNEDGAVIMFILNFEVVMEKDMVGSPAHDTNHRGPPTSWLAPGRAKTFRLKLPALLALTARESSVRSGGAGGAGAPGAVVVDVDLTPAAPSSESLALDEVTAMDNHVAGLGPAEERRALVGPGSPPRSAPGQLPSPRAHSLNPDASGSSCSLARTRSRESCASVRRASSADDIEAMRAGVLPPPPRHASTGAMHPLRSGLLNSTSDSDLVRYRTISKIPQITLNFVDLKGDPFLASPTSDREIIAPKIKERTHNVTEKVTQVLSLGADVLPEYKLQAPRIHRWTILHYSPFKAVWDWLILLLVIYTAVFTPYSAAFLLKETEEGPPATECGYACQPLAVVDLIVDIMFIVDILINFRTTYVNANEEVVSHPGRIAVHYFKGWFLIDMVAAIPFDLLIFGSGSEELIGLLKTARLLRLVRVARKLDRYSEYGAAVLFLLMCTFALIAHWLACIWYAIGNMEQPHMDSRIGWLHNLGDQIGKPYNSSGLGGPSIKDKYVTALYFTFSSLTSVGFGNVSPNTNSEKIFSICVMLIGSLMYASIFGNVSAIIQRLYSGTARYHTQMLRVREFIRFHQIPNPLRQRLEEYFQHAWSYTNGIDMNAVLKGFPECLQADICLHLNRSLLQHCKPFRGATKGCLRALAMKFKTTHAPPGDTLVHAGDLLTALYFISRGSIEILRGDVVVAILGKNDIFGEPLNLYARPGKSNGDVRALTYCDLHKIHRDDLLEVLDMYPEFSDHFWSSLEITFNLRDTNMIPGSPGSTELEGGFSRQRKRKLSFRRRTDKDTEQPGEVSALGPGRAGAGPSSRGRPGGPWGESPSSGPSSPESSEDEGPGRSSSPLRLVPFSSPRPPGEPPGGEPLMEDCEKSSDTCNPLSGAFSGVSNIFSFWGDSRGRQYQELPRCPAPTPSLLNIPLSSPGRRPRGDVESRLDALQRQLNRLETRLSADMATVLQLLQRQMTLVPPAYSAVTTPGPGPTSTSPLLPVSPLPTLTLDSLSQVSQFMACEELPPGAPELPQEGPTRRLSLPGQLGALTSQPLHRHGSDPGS
Regarding `COc1ccc(-c2csc(N3CCOCC3)n2)cc1OC`, the “hERG current change (%, negative = inhibition) at 1uM” value is recorded as -0.311%. In the case of `O=C(c1ccc2c(c1)N(Cc1ccc(F)cc1)CCS2)N1CCC2(CC1)OCCO2`, the “hERG current change (%, negative = inhibition) at 1uM” value was found to be 3.78%. In the case of `COc1ccc(N2CCN(Cc3cc(=O)oc4cc(C)c(Cl)cc34)CC2)cc1`, the “hERG current change (%, negative = inhibition) at 1uM” value came to 5.96%. With `O=C(COC(=O)/C=C/c1ccccc1)NC1CC1`, the “hERG current change (%, negative = inhibition) at 1uM” value is given as -7.28%.

As to `Cc1cccc(-c2noc(-c3ccc(F)cc3)n2)c1`, the “hERG current change (%, negative = inhibition) at 1uM” value is recorded as 5.22%. To `COc1ccc(C(=O)Nc2ccc(N3CCN(C(C)=O)CC3)cc2)cc1[N+](=O)[O-]` belongs 13.4%; to `Cc1ccc(SCC(=O)OCC(=O)NCCC2=CCCCC2)cc1`, 9.01%.

Turning to `COc1cc(/C=C2\C(=N)N3N=C(N4CCOCC4)SC3=NC2=O)ccc1OC(=O)c1ccccc1`, the “hERG current change (%, negative = inhibition) at 1uM” value was 16.8%.

As for `Cc1ccc(-n2c(SCC(=O)N3CCCCC3)nc(O)cc2=O)cc1`, the “hERG current change (%, negative = inhibition) at 1uM” value worked out at 9.05%. Turning to `CC(C)(C)OC(=O)NCCCCCc1nnc(SCC(=O)Nc2cccc(Cl)c2)o1`, the “hERG current change (%, negative = inhibition) at 1uM” value is -1.82%. `COc1cc(/C=C/C(=O)OCC(=O)c2c(N)n(C)c(=O)n(C)c2=O)ccc1OC(F)F`: the “hERG current change (%, negative = inhibition) at 1uM” value is given as -2.51%. To `O=C(Cc1nnc(NC(=O)Nc2ccc(Cl)cc2)s1)NCc1ccccc1` belongs 6.41%. In the case of `CCCC(=O)N=C1SC2CS(=O)(=O)CC2N1c1ccc(C(C)=O)cc1` (stereo not drawn), the “hERG current change (%, negative = inhibition) at 1uM” value is -6.95%.

`CC(C)C(=O)Nc1cccc(C(=O)Nc2ccc(S(=O)(=O)Nc3nccs3)cc2)c1`: the “hERG current change (%, negative = inhibition) at 1uM” value is reported as 10.4%. As to `O=C(Nc1ccncc1)c1cc2ccccc2o1`, the “hERG current change (%, negative = inhibition) at 1uM” value is listed as -4.74%.

As for `Cc1cc(C)nc(Sc2ccc([N+](=O)[O-])cc2[N+](=O)[O-])n1`, the “hERG current change (%, negative = inhibition) at 1uM” value is reported as 18%.

As for `O=C(Nc1ccc(N2CCN(C(=O)c3ccco3)CC2)c(Cl)c1)c1c(F)c(F)c(F)c(F)c1F`, the “hERG current change (%, negative = inhibition) at 1uM” value came out at 0.802%. For `C/C(CC(c1ccccc1)c1c(O)c2ccccc2oc1=O)=N\Nc1ccc([N+](=O)[O-])cc1[N+](=O)[O-]` (stereo not drawn) the value was 10.7%; for `O=C(CN1CCN(Cc2ccc(Cl)cc2)C1=O)NCCCN1CCOCC1`, 4.56%. For `COc1ccc(CN2[C@@H](CC(=O)O)c3cc(C(F)(F)F)ccc3S2(=O)=O)cc1` the value was 14.2%; for `O=C(COc1ccc(Br)cc1)Nc1nnc(-c2cccnc2)s1`, 9.39%; for `O=C(/C=C/c1ccccc1)c1c(O)n(CCc2ccccc2)c(=O)[nH]c1=O`, 4.37%. Consider `CCOC(=O)NC1(NC(C)C)Oc2ccccc2O1`, for which the “hERG current change (%, negative = inhibition) at 1uM” value was 8.78%. As for `COCCNC(=O)NC(=O)COC(=O)C1(c2ccc(Cl)cc2)CC1`, the “hERG current change (%, negative = inhibition) at 1uM” value is 6.06%.

As to `CCOc1cc(C(C(=O)NCC2CCCO2)N(C(=O)Cn2nnc3ccccc32)c2ccccc2OC)ccc1O` (stereo not drawn), the “hERG current change (%, negative = inhibition) at 1uM” value is on record as 7.67%. To `Cc1cccn2c(CN[C@@H]3CCCC[C@H]3c3ccccc3)c(C(=O)N3CCOCC3)nc12` belongs 4.31%; to `CCOC(=O)C1CCCN(Cc2c(C(=O)N3CCOCC3)nc3ccccn23)C1` (stereo not drawn), 6.59%. With `Cc1cc(C)n2nc(CNS(=O)(=O)c3ccc([N+](=O)[O-])cc3)nc2n1`, the “hERG current change (%, negative = inhibition) at 1uM” value was found to be 10.5%. `O=C(COC(=O)c1ccc2[nH]c3c(c2c1)CCCC3)Nc1ccc(Cl)cc1Cl`: the “hERG current change (%, negative = inhibition) at 1uM” value worked out at 3.65%. `O=C(NCc1ccc2c(c1)OCO2)c1ccc(=O)[nH]c1`: the “hERG current change (%, negative = inhibition) at 1uM” value turned out to be 10.1%.

Turning to `CC1CN=C(NCCc2ccccc2)S1` (stereo not drawn), the “hERG current change (%, negative = inhibition) at 1uM” value was 13%.

With `CC(C)CN1C(=O)/C(=C/c2cccs2)NC1=S`, the “hERG current change (%, negative = inhibition) at 1uM” value is 19.6%. With `CCC(=O)O[C@@H]1[C@@H](OC(C)=O)[C@@]2(O)C(C[C@H](O)C2(C)C)[C@](C)(O)[C@H]2CC[C@@H]3[C@@H](O)[C@]12C[C@@]3(C)O` (stereo partly drawn), the “hERG current change (%, negative = inhibition) at 1uM” value came out at 13.5%. With `O=C(NC(=S)Nc1ccccc1N1CCOCC1)c1ccco1`, the “hERG current change (%, negative = inhibition) at 1uM” value was determined as 5.79%. For `COc1cccc(OC)c1OCCOc1ccccc1OC(C)C` the value was 0.584%; for `CCOc1ccccc1CN1CCN(Cc2ccc(C)o2)C(CCO)C1` (stereo not drawn), 7.58%.

Consider `NC(=O)CSc1nnc(-c2ccncc2)o1`, for which the “hERG current change (%, negative = inhibition) at 1uM” value turned out to be 12.4%. For the compound `CN1CCN(c2ccc(NC(=O)c3ccc([N+](=O)[O-])o3)cc2Cl)CC1`, the “hERG current change (%, negative = inhibition) at 1uM” value is -13.7%.

Turning to `COc1ccc(NC(=O)CSc2nc3ccccc3c(=O)n2CCCO)cn1`, the “hERG current change (%, negative = inhibition) at 1uM” value was -26.1%. Consider `CCn1cc(C(=O)O)c(=O)c2cc(F)c(N3CCNCC3)cc21`, for which the “hERG current change (%, negative = inhibition) at 1uM” value amounted to 11.5%. Turning to `Cc1nc2c(cnn2-c2ccccc2Cl)c(=O)n1-c1ccc(N2CCC(C)CC2)cc1`, the “hERG current change (%, negative = inhibition) at 1uM” value is 11.2%. With `Cc1ccc(C)c(Cn2c(C(C)O)nc3ccccc32)c1` (stereo not drawn), the “hERG current change (%, negative = inhibition) at 1uM” value is reported as 11.2%.

Take `O=C(Cc1ccc([N+](=O)[O-])cc1)N1N=C2CCCCC2C1(O)C(F)(F)F` (stereo not drawn): the “hERG current change (%, negative = inhibition) at 1uM” value was 5.78%. In the case of `CCCCCCC(=O)c1c(C)[nH]c(C(=O)OCC)c1C`, the “hERG current change (%, negative = inhibition) at 1uM” value is listed as 11.8%. `C=CCOc1nc2c(c(=O)n(C)c(=O)n2C)n1Cc1ccccc1`: the “hERG current change (%, negative = inhibition) at 1uM” value is 5.46%.

As to `COCCNC(=O)CSc1ncnc2sccc12`, the “hERG current change (%, negative = inhibition) at 1uM” value came out at 23.4%. Turning to `CC(=O)Oc1ccccc1-c1nc(C)nc(N(C)C(C)=O)n1`, the “hERG current change (%, negative = inhibition) at 1uM” value came to 12.4%. As for `Cc1ccc(NC(=O)Nc2ccc(F)cc2)nc1`, the “hERG current change (%, negative = inhibition) at 1uM” value is 4.71%.

As to `COc1ccc(CN(C)C(=O)c2ccc(OCC(=O)N3CCOCC3)c(OC)c2)cc1`, the “hERG current change (%, negative = inhibition) at 1uM” value is reported as 5.54%. For `CCOc1ccccc1C(=O)NCC(=O)NCC1CCCCC1` the value was 13.4%; for `Cc1cccc(/C(N)=N/OC(=O)Cc2ccccc2)c1`, 25.1%.

With `CCOc1cc(NC(=S)NCC(C)C)c(OCC)cc1NC(=O)c1ccco1`, the “hERG current change (%, negative = inhibition) at 1uM” value amounted to 7.29%. As to `COc1ccc(CN2C(=O)CCC2(C)C(=O)NC2CCCCCC2)cc1` (stereo not drawn), the “hERG current change (%, negative = inhibition) at 1uM” value is -5.45%. Take `Cc1cc(C)c2[nH]c(C)c(CN3CCCCCC3)c(=O)c2c1`: the “hERG current change (%, negative = inhibition) at 1uM” value is -3.09%.

As for `CN(C)C1=NP(N(C)C)(N(C)C)=NC(c2ccccc2)=N1`, the “hERG current change (%, negative = inhibition) at 1uM” value is -6.9%. `COc1cccc(C(=O)NCCS(=O)(=O)N2CCCCC2)c1`: the “hERG current change (%, negative = inhibition) at 1uM” value was determined as 7.65%. Take `CC(=O)c1c(C)n(CC2CCCO2)c2ccc(O)cc12` (stereo not drawn): the “hERG current change (%, negative = inhibition) at 1uM” value is 17.1%. For `COc1ccc(NC(=O)c2c(C)nn(Cc3ccccc3)c2Cl)cc1S(=O)(=O)N1CCOCC1` the value was 7.75%; for `CCOc1ccccc1NC(=O)C(OC(=O)c1cc(C)oc1C)c1ccccc1` (stereo not drawn), 7.68%. `O=C(CCS(=O)(=O)c1cccc2nonc12)N1CCCc2ccccc21`: the “hERG current change (%, negative = inhibition) at 1uM” value was found to be 8.35%. For the compound `Cc1cc(OCC(=O)N[C@H](C(=O)O)c2ccccc2)c2c3c(c(=O)oc2c1)CCC3`, the “hERG current change (%, negative = inhibition) at 1uM” value was found to be 14.8%. In the case of `Cc1cccc(CNS(=O)(=O)c2ccc(-c3cnc(C4CC4)o3)cc2)c1`, the “hERG current change (%, negative = inhibition) at 1uM” value was determined as 18.2%. Consider `CC(NC(=S)Nc1cccc(C(F)(F)F)c1)C(C)(C)C` (stereo not drawn), for which the “hERG current change (%, negative = inhibition) at 1uM” value is on record as 13.1%. To `CC1(C)Cc2c(sc3nc(-c4cc5ccccc5o4)n(N)c(=O)c23)CO1` belongs 9.71%; to `CCN1C(=O)C(CC(=O)Nc2ccccc2Cl)N(NC(=O)c2cccc(F)c2)C1=S` (stereo not drawn), 14.2%. Take `Cc1ccc(C)c(NC(=O)CN(C)C(=O)c2cc([N+](=O)[O-])ccc2N2CCOCC2)c1`: the “hERG current change (%, negative = inhibition) at 1uM” value is -4.01%. In the case of `CC(C)OCC(O)CN1CCN(CC(O)COc2ccc3c(c2)OCO3)CC1` (stereo not drawn), the “hERG current change (%, negative = inhibition) at 1uM” value is on record as -19.4%. With `COc1ccc(NC(=O)c2ccccc2NS(C)(=O)=O)cc1OC`, the “hERG current change (%, negative = inhibition) at 1uM” value worked out at 15.9%. Turning to `Cc1ccc(OCC(O)CN2CCN(CCO)CC2)c(C)c1.Cl` (stereo not drawn), the “hERG current change (%, negative = inhibition) at 1uM” value was found to be 10.6%. For `Oc1ccccc1/C=N/Nc1nccnc1Cl` the value was 3.15%; for `COc1cc(/C=N/NC(=O)CN2CCOCC2)ccc1OCc1ccccc1`, 6.1%; for `CC(=O)N1C(C)(C)CC(=NOC(=O)c2ccccc2)CC1(C)C`, 10.9%. To `O=S(=O)(NCc1ccc2c(c1)OCO2)c1cccc2nsnc12` belongs -5.56%; to `COCCCNC(=O)COc1ccc(S(=O)(=O)NCc2ccccc2)cc1Cl`, 4.32%; to `Cc1onc(-c2ccccc2)c1NC(=O)Nc1ccc(OC(F)F)cc1`, 7.53%. As to `O=C(NNC(=O)C1CCCC1)c1ccccc1F`, the “hERG current change (%, negative = inhibition) at 1uM” value came to 15.4%.

On to `Cn1c(O)c(C2=c3ccccc3=NC2=O)[nH]c1=S`, for which the “hERG current change (%, negative = inhibition) at 1uM” value was determined as 11.8%. For `CSc1nc(NCCCO)c2c3c(sc2n1)CN(C)CC3`, the “hERG current change (%, negative = inhibition) at 1uM” value is recorded as -10.6%.

Consider `CCN(CC)c1ccc(S(=O)(=O)N2CCOCC2)cc1NC(=O)CN1CCc2ccccc2C1`, for which the “hERG current change (%, negative = inhibition) at 1uM” value came out at 3.72%. Regarding `CN(C)CCCNC(=O)CCc1nc2ccccc2c(=O)[nH]1`, the “hERG current change (%, negative = inhibition) at 1uM” value is reported as -4.91%.

`Cc1cc(NS(=O)(=O)c2ccc(NC(=O)CSc3nnc(-c4ccco4)n3Cc3ccco3)cc2)nc(C)n1`: the “hERG current change (%, negative = inhibition) at 1uM” value amounted to 14.1%. Regarding `Cc1n[nH]c(C)c1CCC(=O)N/N=C/c1c(C)[nH]c2ccccc12`, the “hERG current change (%, negative = inhibition) at 1uM” value came out at 14.2%. Turning to `Cc1nc2ccc(NC(=O)c3ccc(Cl)s3)cc2s1`, the “hERG current change (%, negative = inhibition) at 1uM” value is listed as 8.8%. As to `Cc1cc(/C=C2\C(=O)NC(=O)N(c3ccc(F)cc3)C2=O)c(C)n1-c1cccc(C(=O)O)c1`, the “hERG current change (%, negative = inhibition) at 1uM” value is listed as 11.1%. Turning to `Cc1nc(NC(=O)COC(=O)C(NC(=O)c2ccco2)C(C)C)c(Cl)cc1Cl` (stereo not drawn), the “hERG current change (%, negative = inhibition) at 1uM” value is 3.83%. For the compound `CCN(C(=O)CSc1ccc2c(c1)OCCO2)C1CCS(=O)(=O)C1` (stereo not drawn), the “hERG current change (%, negative = inhibition) at 1uM” value is 9.99%.

Take `O=c1[nH]nc(SCc2ccccc2Cl)n1-c1ccc2c(c1)OCCO2`: the “hERG current change (%, negative = inhibition) at 1uM” value is reported as 9.61%.
